Reference: the supplement of paper PMC3334620
Over roughly 33,000 sequences, “E-score (-0.5 to 0.5)” has its median near -0.016; the highest 2% begin near 0.32. This is one part of the list.

biological target: T1, Stp1 (UniProt B3LFK1); assay: PBM E-score (8-mer binding enrichment) (E-score (-0.5 to 0.5)); higher = stronger / more preferred TF binding; most listed sequences are background and not binding sites; conditions: protein concentration: 200 nM; construct: GST-full length
T1 sequence: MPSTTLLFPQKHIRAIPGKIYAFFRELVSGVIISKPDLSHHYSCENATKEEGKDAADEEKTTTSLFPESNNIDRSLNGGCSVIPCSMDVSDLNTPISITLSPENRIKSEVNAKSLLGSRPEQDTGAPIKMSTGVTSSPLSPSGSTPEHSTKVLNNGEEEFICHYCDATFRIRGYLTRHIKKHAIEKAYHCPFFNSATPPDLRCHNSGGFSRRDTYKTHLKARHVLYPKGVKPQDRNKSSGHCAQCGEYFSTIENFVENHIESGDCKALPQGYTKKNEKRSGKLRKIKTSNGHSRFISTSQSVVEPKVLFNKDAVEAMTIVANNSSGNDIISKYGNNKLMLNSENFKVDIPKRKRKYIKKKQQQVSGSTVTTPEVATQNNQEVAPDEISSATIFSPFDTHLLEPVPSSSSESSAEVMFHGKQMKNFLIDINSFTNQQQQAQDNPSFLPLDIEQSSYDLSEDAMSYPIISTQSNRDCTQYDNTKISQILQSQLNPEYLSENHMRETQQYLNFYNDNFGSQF
Summary of the method: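 Yeast transcription factors, full-length or as DNA-binding domains, were expressed with a GST tag using PURExpress in vitro transcription/translation. At about 100-200 nM they were applied to universal all-10-mer Agilent arrays, double-stranded by primer extension on fresh or once-stripped slides. Fluorescent anti-GST detected bound protein, and masliner normalised the scans. E-scores for ungapped eight-base words, pooled with reverse complements, came from the Universal PBM Analysis Suite.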

| Sequence | PBM E-score |
| --- | --- |
| TACTTTAA | 0.175 |
| ACAAGGGG | -0.344 |
| ACCTATCG | 0.0549 |
| TTCACGAA | -0.0541 |
| ATGGCTTA | -0.0579 |
| CGTCTTGC | -0.0431 |
| GATTTAAA | 0.0612 |
| ACCACCAT | -0.0512 |
| AATAAGCT | 0.166 |
| GCTTGTTA | -0.00813 |
| GCCCTTTA | 0.104 |
| CGAGCGCA | 0.027 |
| CAACTACC | -0.149 |
| ACTTAAAC | -0.023 |
| TAGACGCA | -0.156 |
| ATGCCCGC | -0.0196 |
| CACATGAG | -0.165 |
| CGCACCCG | 0.0358 |
| TCGACGAA | -0.0569 |
| TCCGGAAA | -0.078 |
| GTTAGGAA | -0.0205 |
| GCCAGCAC | -0.184 |

| Sequence | PBM E-score |
| --- | --- |
| GCGCAAAC | 0.0893 |
| GCTGCAAC | -0.0261 |
| ATGTGTTC | 0.0508 |
| AGGGCAAA | 0.0608 |
| CATACGGA | 0.268 |
| CATGAAAG | 0.0343 |
| CCGGGCGC | -0.223 |
| AGCGAGGA | -0.162 |
| AGTGTAAT | -0.0454 |
| AAACGGCG | 0.481 |
| CACTAAAC | 0.137 |
| GGTGGGGA | -0.0651 |
| AAACTGTA | 0.0673 |
| ACAATTTG | -0.00284 |
| AGCGTCGC | -0.0935 |
| ATGACACG | 0.0757 |
| AAACCGAG | -0.0477 |
| AAGCAGGG | -0.156 |
| AGGACGGA | -0.161 |
| GCATAATA | 0.243 |
| CCGGGCGA | -0.196 |
| ACTACAGC | -0.14 |

| Sequence | PBM E-score |
| --- | --- |
| CTGTCCAC | -0.101 |
| CCACGAGG | 0.0778 |
| AAATATAA | 0.241 |
| CATGCCCC | -0.0965 |
| TGTTGGAA | 0.216 |
| AGACTTGA | -0.176 |
| GCATGCGC | 0.0948 |
| AGTACAAT | 0.241 |
| AACACGCA | 0.0508 |
| CGTCTCCC | 0.00795 |
| AGCGGGTA | 0.0396 |
| CGTCTTAC | -0.0611 |
| CCCTTACG | -0.124 |
| CCGAAATC | -0.0492 |
| CATATCTA | 0.137 |
| TGTGCAAA | -0.111 |
| GGCTCAAC | 0.0514 |
| CTCGTAGC | -0.0256 |
| ATCTGTTC | -0.086 |
| GGATGTAA | 0.102 |
| CACTTTAG | 0.0106 |
| ATTGAGAC | -0.0134 |

| Sequence | PBM E-score |
| --- | --- |
| GGATTCTA | -0.123 |
| GGGCAGAA | 0.0536 |
| ATCGCCTG | -0.135 |
| CGGGCGAG | -0.204 |
| GCAGAGGC | -0.153 |
| AAATAACG | 0.206 |
| AGACGCAA | 0.0534 |
| GAGCGTGC | 0.032 |
| ATCGCAGG | -0.189 |
| ATATTTGC | 0.289 |
| AGCAGATC | -0.0187 |
| GTTACACA | 0.151 |
| AGGGTTCA | -0.0115 |
| CGTTACAG | -0.00637 |
| CCAACAAG | 0.00906 |
| GTAATGTA | -0.0604 |
| AGTGGTCC | -0.116 |
| CCTGGTAC | 0.0102 |
| CTATTTTA | 0.00178 |
| ATCGTTAA | -0.0863 |
| CGTTGGCC | -0.124 |
| ACCCTGTA | -0.103 |

| Sequence | PBM E-score |
| --- | --- |
| AAGGCTAG | 0.0823 |
| CAGAGGGG | -0.311 |
| CTCTATTA | 0.0457 |
| ACTGTACT | -0.156 |
| ATCATGTC | 0.00425 |
| ATAATAGG | 0.035 |
| GGGAACAA | -0.0413 |
| CGAGGGAA | -0.0331 |
| CTATTGGC | -0.00467 |
| GAGTGAGC | -0.123 |
| AGTCCGCG | 0.0108 |
| AAGGTCAG | -0.212 |
| CGGGTTAG | -0.232 |
| AATTGAGC | 0.0156 |
| CCAACTCC | -0.00244 |
| TCGGGGAA | -0.0714 |
| CCCACGAC | -0.235 |
| ACACTGTC | -0.0844 |
| ACGAAGAT | 0.111 |
| CGCATAGC | 0.0422 |
| GCGGAGCA | 0.0438 |
| AAGCACTC | -0.0548 |
